# PubChem BioAssay AID1671188 (National Center for Advancing Translational Sciences (NCATS), 2021)
# Values joined by “and” are separate entries in the source; they are usually repeats but may differ in a detail not shown here. Equal values may be shown once. Among all 100,000 compounds or so, about 250 (0.25%) were called active. Inconclusive results, whose numbers are uncertain, are shown with a selection of clear calls. Calls follow the shape of the dose curve; as a rule, active = well fitted inhibition curve with a large enough effect; inconclusive = small, poorly fitted or top-dose-only effect; inactive = flat fitted curve, though single readings scatter. Potencies beside an inconclusive call are fits to weak or partial responses and may not hold up.
# Molecular target: Alanine aminotransferase 2 (Homo sapiens) (UniProt Q8TD30)
# Assay: Primary qHTS assay for inhibitors of Glutamate pyruvate transaminase 2 (GPT2); also: nearly all actives have a fitted effect of over 60% in size
# Details: Recombinant GPT2, coupled pyruvate oxidase/HRP Amplex Red fluorescence; activity change, negative = inhibition: at 57.7 µM (top of the series) unless noted; series mostly up to 57.7 µM
# How it was run: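 Recombinant GPT2 (10ng/uL) with 250uM a-KG and 2mM L-alanine, 30 min at room temperature, in HEPES pH 7.5 buffer. Pyruvate detected by pyruvate oxidase/HRP/Amplex Red fluorescence after 30 min in the dark; AOA (50uM) as positive control.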
# % is scaled to controls: 0 for no effect and ±100 for the full control effect; potency is read from the fitted curve at half-maximal effect; tags tell the direction and shape of the fitted curve.
SMILES,Potency,"activity change, negative = inhibition",outcome
Cc1nc2c(-c3cnc(N)nc3)nc(N3CCOCC3)nc2n1C(C)C,"inconclusive: 6.31 µM [inhibitor, single point]",–,–
Cn1ccc(C(=O)N2CC3ON=C(C(=O)N4CCOCC4)C3C2)n1 (stereo not given),–,inactive: -8.79%,–
Cc1cnc(C(=O)N2CCCC2c2nc(C3CCOCC3)no2)cn1 (stereo not given),"inconclusive: 7.08 µM [inhibitor, single point]",–,–
Cn1cc(-c2cc(-c3ccncc3)c3cncn3c2)cn1,"inconclusive: 89.1 µM [inhibitor, single point]",–,–
O=C(Nc1ccc(Cl)cc1)c1nc2c(o1)CCN(Cc1nccs1)CC2,–,–,inactive [at 88.5 µM]
CCOc1cc(=O)n2c(c1C(=O)Nc1ccc(Br)cc1F)CCCC2,–,inactive: -11.3%,–
CN(C)c1ccc2c(c1)CN(C(=O)c1cnccn1)CCO2,"inconclusive: 2.24 µM [inhibitor, full curve, poor fit]",–,–
c1ccc2c(CCNc3ccc(Nc4ccncc4)cc3)c[nH]c2c1,"inconclusive: 43.2 µM [inhibitor, single point] and active: 14.1 µM",–,–
CC1(C)CN(C(=O)c2ccccc2N2CCC(=O)NC2=O)CC[C@]1(C)O,"inconclusive: 4.47 µM [inhibitor, single point]",–,–
O=C([C@@H]1C[C@@H](O)[C@H](O)[C@@H]2NC(=S)N(c3ccc(OC(F)(F)F)cc3)[C@@H]21)N1CCCCC1,"inconclusive: 7.08 µM [inhibitor, single point]",–,–
COc1ccc2c(Oc3ccc(NC(=O)c4c(C)n(CC(C)(C)O)n(-c5ccccc5)c4=O)nc3)ccnc2c1,"inconclusive: 43.2 nM [inhibitor, full curve, poor fit] and inconclusive: 7.08 µM [inhibitor, full curve, poor fit]",–,–
CS(=O)(=O)NCCc1ccc(CC2CCN(C(=O)COc3ccc(F)cc3)CC2)cc1,–,inactive: -60.2%,–
O=C(Cc1ccccc1)N1CCCC(c2nn(-c3ccc(Cl)cc3)c(=O)[nH]2)C1 (stereo not given),–,–,inactive
COCc1nc2nccc(-c3ccccc3)n2n1,"inconclusive: 39.8 µM [inhibitor, single point]",–,–
Cc1ncsc1C(=O)N1CC(CNC(=O)C2CC2)C2(C1)CN(c1ccccc1)C2 (stereo not given),"inconclusive: 11.2 µM [inhibitor, single point]",–,–
CC(C)CCN1CCNC(=O)C1CC(=O)N(C)Cc1nncn1C(C)C (stereo not given),"inconclusive: 0.794 µM [inhibitor, full curve, poor fit]",–,–
Cc1cc2c(c(=O)[nH]1)OC(C(O)CC(C)C)O2 (stereo not given),"inconclusive: 25.1 µM [inhibitor, partial curve, poor fit]",–,–
CC(C)CNC(=O)N1CCC(CC2CC2)(NS(C)(=O)=O)CC1,–,inactive: -10.1%,–
O=C(c1cnc(Nc2ccccc2)nc1)N1CC[C@H](CO)[C@@H](O)C1,"inconclusive: 6.31 µM [inhibitor, single point]",–,–
O=C1NCc2ccccc2CC12CCCN(Cc1ccc(Cl)cc1)C2 (stereo not given),"inconclusive: 31.6 µM [inhibitor, single point]",–,–
COCC1CN(Cc2ccc(Br)s2)CC12CCNCC2 (stereo not given),"inconclusive: 0.708 µM [inhibitor, full curve, poor fit]",–,–
CNc1nc2c(s1)C(c1ccc(F)c(F)c1)CC(=O)N2 (stereo not given),"inconclusive: 6.31 µM [inhibitor, full curve, poor fit]",–,–

SMILES,Potency,"activity change, negative = inhibition",outcome
O=C(NC1CC(c2cc(NCCO)ncn2)C1)c1cc2ccccc2[nH]1 (stereo not given),"inconclusive: 6.31 µM [inhibitor, single point]",–,–
CC1(CNc2ccccc2)COc2ccc(C(=O)NCc3cccnc3)cc2N1 (stereo not given),–,inactive: 4.7% [at 88.5 µM],–
COCCNC(=O)[C@@H]1Cc2cn(Cc3ccccn3)c3cccc(c23)[C@H](CC(C)C)N1,"inconclusive: 56.2 µM [inhibitor, single point]",–,–
O=C(c1ccc2cc[nH]c2c1)N1CCCN(c2cc(-c3ccc(F)cc3)[nH]n2)CC1,"inconclusive: 39.8 µM [inhibitor, partial curve, poor fit]",–,–
O=C(Nc1ccc(F)cc1)C1CN(C2CCCCC2)C(=O)N1 (stereo not given),–,inactive: 0.102% [at 88.5 µM],–
CN(C)c1cccc(C(=O)NC2CCN(c3cc(-c4ccccc4)[nH]n3)C2)c1 (stereo not given),"inconclusive: 12.6 µM [inhibitor, partial curve]",–,–
O=C(c1ccccn1)N1CCCN(c2cc(-c3ccc(Cl)cc3)[nH]n2)CC1,"inconclusive: 35.5 µM [inhibitor, single point]",–,–
COCCCNc1ncnc2c1CN(c1ccccc1)C(=O)CN2C,"inconclusive: 14.1 µM [inhibitor, partial curve]",–,–
CC(C)Oc1ccc(CNC(=O)c2cc3n(n2)CC(c2ccc(Cl)cc2)OC3)cc1 (stereo not given),"inconclusive: 39.8 µM [inhibitor, single point]",–,–
CC(C)N1CC2CCC(C1)N2Cc1ccc(Cl)cc1,"inconclusive: 11.2 µM [inhibitor, single point]",–,–
COC(=O)CNC(=O)C1c2ccccc2C(=O)N(Cc2ccccc2)C12CCCC2 (stereo not given),"inconclusive: 39.8 µM [inhibitor, single point]",–,–
Cc1ccccc1C(=O)N1CCCC(C(=O)N2CCCC(c3nc4ccncc4[nH]3)C2)C1 (stereo not given),–,inactive: -2.82%,–
COc1ccc(N2CCN(c3nc(C(=O)N4CCN(C)CC4)cs3)CC2)cc1,"inconclusive: 3.98 µM [inhibitor, full curve, poor fit]",–,–
COc1ccc(CNC(=O)C[C@@H]2CCNC[C@@H]2Cc2cc(CC3CCCCC3)on2)cc1,"inconclusive: 3.55 µM [inhibitor, partial curve, poor fit]",–,–
COc1ccc(N2CC3CCC(C2)N3Cc2ccc(C#N)cc2)cc1,active: 10 µM,–,–
Cc1csc(-c2nnc(Nc3ccc(Oc4ncccc4-c4ccnc(N)n4)cc3)c3ccccc23)c1,"inconclusive: 39.8 µM [inhibitor, single point]",–,–
O=C(c1ccccc1Cl)N1CCCC2(C1)Nc1cccnc1NC2=NC1CCCC1 (stereo not given),"inconclusive: 15.8 µM [inhibitor, partial curve, poor fit]",–,–
O=C(NCC(=O)N1CCN(c2ccccn2)CC1)c1cc2ccccc2[nH]1,–,inactive: 1.56%,–
CC(Cn1cncn1)Nc1ccc(-c2nc(Cc3ccc(F)cc3)no2)cn1 (stereo not given),"inconclusive: 7.08 µM [inhibitor, single point]",–,–
O=C1CCc2cc(S(=O)(=O)CCC(=O)N3CCC(CCOc4ccc(F)cc4)C3)ccc2N1 (stereo not given),"inconclusive: 25.1 µM [inhibitor, partial curve, poor fit]",–,–
Nc1nc2c(ncn2COC(CO)CO)c(=O)[nH]1,inactive,–,–
CCNc1nc2c(s1)C(c1cccnc1)CC(=O)N2 (stereo not given),"inconclusive: 1.41 µM [inhibitor, full curve, poor fit]",–,–

SMILES,Potency,"activity change, negative = inhibition",outcome
COc1ccc(N2CCN(c3nc(C(=O)NCc4ccc(C)c(C)c4)cs3)CC2)cc1,–,inactive: -5.45%,–
CNCC(=O)N1CCN(Cc2nc(C3CC3)no2)CC(O)C1 (stereo not given),"inconclusive: 0.708 µM [inhibitor, full curve, poor fit]",–,–
CCOc1ccccc1C1NC(=O)N(CC(=O)Nc2ccc(OC)c(Cl)c2)C2=C1C(=O)OC2 (stereo not given),–,inactive: -1.62%,–
Cc1cccc(CN2CCN(C)C3(CCC(=O)N(CC(=O)O)CC3)C2)n1 (stereo not given),"inconclusive: 39.8 µM [inhibitor, single point]",–,–
Cc1nn2c(c1-c1ccccc1C(C)C)N(C(=O)c1ccn(C)n1)CCC2,"inconclusive: 56.2 µM [inhibitor, single point]",–,–
CC(C)CCN1CCc2c(n(CCOc3ccccc3)n(-c3ccccc3)c2=O)C1,–,–,inactive [at 88.5 µM]
O=C(NCC1Cn2cccc2C(=O)N1Cc1ccccc1)c1ccc2ccccc2n1 (stereo not given),"inconclusive: 39.8 µM [inhibitor, partial curve, poor fit]",–,–
COc1cccc(CNC(=O)C2CCCCC(=O)N2Cc2ccccc2)c1 (stereo not given),–,–,inactive
CC(C)CN1CCN(C(=O)C2CCCN(S(C)(=O)=O)CCC(=O)NCC2)CC1 (stereo not given),"inconclusive: 35.5 µM [inhibitor, single point]",–,–
COCCNC(=O)C1CCCN(Cc2cccc(-c3ccc(F)cc3F)c2)C1 (stereo not given),"inconclusive: 5.01 µM [inhibitor, full curve, poor fit]",–,–
Cc1ccc(CN2CC[C@H](c3nc4ccc(C)cc4[nH]3)C2)cc1,–,–,inactive [at 88.5 µM]
CN1CCN(C(=O)C[C@@H]2CCNC[C@@H]2Cc2cc(-c3ccccc3)on2)CC1,–,inactive: -10.8% [at 88.5 µM],–
O=C(NCc1nc2ccccc2c(=O)n1-c1ccc(F)cc1)Nc1ccc(Cl)c(C(F)(F)F)c1,"inconclusive: 39.8 µM [inhibitor, single point]",–,–
O=C(NC1CCN(Cc2ccc(F)c(F)c2)CC1)c1ccc2nccn2c1,"inconclusive: 6.31 µM [inhibitor, single point]",–,–
COc1cc(OC)cc(C(=O)N2CCC3(CC2)NC(=O)N(c2cccc(F)c2)N3)c1,"inconclusive: 39.8 µM [inhibitor, single point]",–,–
COc1ccc(Cc2nc3nccc(-c4ccc(F)cc4OC)n3n2)cc1,–,inactive: -11.5%,–
Cn1ncc2c(C(=O)NCCc3ccccc3F)cc(-c3cccnc3)nc21,–,inactive: -8.17%,–
Cc1ccc(C(=O)N2CCC3(CC2)NC(=O)N(c2ccccc2)N3)cc1,"inconclusive: 39.8 µM [inhibitor, partial curve, poor fit]",–,–
COc1ccc(CCc2nc3c(C)c(-c4c(C)noc4C)c(C)cc3n2CCN2CCOCC2)cc1,–,inactive: -40.8%,–
O=C1c2c(nc(COc3cccc(C(F)(F)F)c3)n2Cc2ccccc2)NCCN1CC1CC1,–,inactive: 2.93%,–
CCn1c(CN(C)C)nnc1C1CCN(Cc2cnc(N(C)C)s2)CC1,"inconclusive: 2.82 µM [inhibitor, partial curve, poor fit]",–,–
